The values that follow come from the supplement of paper PMC7826260.

This is one part of the list. The data describe in vitro nicking of single-stranded DNA by Rep domains (1 h at 37 °C, 3 µM enzyme); the outer parts of the 90-letter strands are left off. The score is log2 (uncut reads / reads without enzyme); strong cutting gives strongly negative numbers. There is no active / inactive call. Reads are scaled to the total; values above 0 arise when much of the pool is cut.

The first experiment has as its system T1, Rep nickase domain of Muscovy duck circovirus.
T1 sequence (residues 1-111 of Rep, tag left off): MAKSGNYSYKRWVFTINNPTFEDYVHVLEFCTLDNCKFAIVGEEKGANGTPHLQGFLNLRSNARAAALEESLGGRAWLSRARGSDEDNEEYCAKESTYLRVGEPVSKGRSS
In words: uncleaved DNA left, log2 of reads against the no-enzyme library (log2 ratio); higher = less cleavage (more negative = more Rep cleavage of the k-mer); sequences stand for … in CTCGTCCG…ACCGGAGA
Here is the method:
(§1)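 A pool of 90-nt single-stranded DNAs with seven random bases just before the constant AC of the nick site (name = the seven bases) was cut by 3 µM recombinant His6-SUMO-tagged Rep nickase domain (300 nM DNA, 50 mM HEPES pH 8.0, 50 mM NaCl, 1 mM MnCl2, 1 h, 37 °C, three replicates). Uncut DNA was amplified and sequenced.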
Regarding GAAGGGA, the “uncleaved DNA left (log2)” value is 0.136.
On the same count and under the same terms, next, TTAGGTT: 0.116.
Still for that read-out and setting: next, ATGTATG: 0.0205; GTAGTCA: 0.0831.
Same read-out and setting: next, ACCTTAG: 0.0363; GACTTCG: -0.0685; ACACATG: -0.0434.
Turning to GAAATGT, the “uncleaved DNA left (log2)” value worked out at 0.0708.
The same measure, in the same setting: next, TAAGAAG: 0.146.
Same read-out and setting: next, TGTAATC: -0.0165.
Still for that read-out and setting: next, CCTCACA: -0.183; TATATAA: 0.0783.
TCTATTG: the “uncleaved DNA left (log2)” value is 0.0351.
The same measure, in the same setting: next, ATATGAC: 0.00212; CAAGAGA: 0.139; AGTCGTT: -0.0137.
Still for that read-out and setting: next, TTCTTAG: 0.0564.
Still for that read-out and setting: next, AAAAAGC: 0.103.
Turning to AGCGGTC, the “uncleaved DNA left (log2)” value was 0.0682.
Still for that read-out and setting: next, CAACTTC: -0.0791; ACACAGC: -0.0032; TCTGACA: 0.0428.
Regarding TCTGGGA, the “uncleaved DNA left (log2)” value is 0.163.
The same measure, in the same setting: the figure for AAATTTC is -0.782; for AACTGGA it is 0.0191.
On the same count and under the same terms, next, CTACTAA: -0.0735; GCATGTC: 0.115.
On the same count and under the same terms, the figure for CTGGCTT is 0.0533; for ACGAGGG it is 0.0266; for TTACAGG it is -0.00415.
Turning to CTCGTAT, the “uncleaved DNA left (log2)” value came out at 0.104.
On the same count and under the same terms, next, TAATCGT: -1.91; GGTTTCT: -0.33; CCACGAC: -0.0262.
As for ATTTCAC, the “uncleaved DNA left (log2)” value turned out to be 0.0801.
Still for that read-out and setting: next, CAAGTCC: -0.0627; TAACAGT: -0.0456; GCCTGAT: -0.0519.
CTTGCCC: the “uncleaved DNA left (log2)” value is -0.105.
For CTACATA, the “uncleaved DNA left (log2)” value is -0.0197.

In the next experiment the test system is T2, Rep nickase domain of banana bunchy top virus.
T2 sequence (residues 1-94 of Rep, tag left off): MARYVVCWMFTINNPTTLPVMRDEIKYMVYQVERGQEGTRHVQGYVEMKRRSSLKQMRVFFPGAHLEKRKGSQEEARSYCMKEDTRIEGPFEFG
The description is as above. Here is the method: as §1
As to GAAGGGA, the “uncleaved DNA left (log2)” value stood at 0.0702.
Turning to TTAGGTT, the “uncleaved DNA left (log2)” value was 0.00734.
Same read-out and setting: next, ATGTATG: -0.0709; GTAGTCA: 0.0255.
Still for that read-out and setting: the figure for ACCTTAG is -0.00431; for GACTTCG it is -0.0262; for ACACATG it is 0.0874.
On the same count and under the same terms, next, GAAATGT: -0.0225; TAAGAAG: 0.0142; TGTAATC: 0.0735.
Take CCTCACA: the “uncleaved DNA left (log2)” value is -0.0313.
Still for that read-out and setting: next, TATATAA: 0.0355; TCTATTG: 0.0343.
On the same count and under the same terms, next, ATATGAC: -0.0607; CAAGAGA: 0.0516.
As for AGTCGTT, the “uncleaved DNA left (log2)” value was -0.297.
On the same count and under the same terms, the figure for TTCTTAG is -0.102; for AAAAAGC it is 0.204.
Still for that read-out and setting: next, AGCGGTC: 0.0101; CAACTTC: 0.0192.
The same measure, in the same setting: next, ACACAGC: -0.0435; TCTGACA: 0.166; TCTGGGA: 0.0223.
In the case of AAATTTC, the “uncleaved DNA left (log2)” value is -0.0285.
Regarding AACTGGA, the “uncleaved DNA left (log2)” value was determined as 0.112.
On the same count and under the same terms, the figure for CTACTAA is 0.0292.
Same read-out and setting: the figure for GCATGTC is 0.113; for CTGGCTT it is -0.197; for ACGAGGG it is -0.104.
Regarding TTACAGG, the “uncleaved DNA left (log2)” value was -0.0815.
Same read-out and setting: next, CTCGTAT: 0.0924.
Same read-out and setting: next, TAATCGT: -0.0357; GGTTTCT: 0.0582.
On the same count and under the same terms, next, CCACGAC: -0.224.
As to ATTTCAC, the “uncleaved DNA left (log2)” value is -0.0329.
Consider CAAGTCC, for which the “uncleaved DNA left (log2)” value is -0.0357.
The same measure, in the same setting: next, TAACAGT: -0.112; GCCTGAT: -0.119; CTTGCCC: -0.255.
The same measure, in the same setting: next, CTACATA: 0.119.

The test system of a further experiment is T3, Rep nickase domain of cabbage leaf curl virus.
T3 sequence (residues 1-116 of Rep, tag left off): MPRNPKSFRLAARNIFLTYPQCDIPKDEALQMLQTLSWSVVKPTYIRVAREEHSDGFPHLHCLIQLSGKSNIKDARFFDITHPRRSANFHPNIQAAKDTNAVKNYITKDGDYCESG
The description is as above. As to the method: as §1
Turning to GAAGGGA, the “uncleaved DNA left (log2)” value worked out at 0.372.
Still for that read-out and setting: next, TTAGGTT: 0.343; ATGTATG: -0.449; GTAGTCA: 0.324.
Still for that read-out and setting: next, ACCTTAG: -0.71; GACTTCG: -0.844; ACACATG: -0.686.
With GAAATGT, the “uncleaved DNA left (log2)” value is -0.195.
Still for that read-out and setting: next, TAAGAAG: -0.682.
Still for that read-out and setting: next, TGTAATC: 0.401; CCTCACA: -0.0886; TATATAA: -0.0281.
The same measure, in the same setting: the figure for TCTATTG is -0.401; for ATATGAC it is -0.0125.
As to CAAGAGA, the “uncleaved DNA left (log2)” value worked out at 0.295.
Still for that read-out and setting: next, AGTCGTT: -0.0341; TTCTTAG: -0.884; AAAAAGC: -0.135.
Still for that read-out and setting: next, AGCGGTC: 0.0155.
Same read-out and setting: the figure for CAACTTC is -0.215.
